Source: publication PMC4336329 (PLoS ONE, 2015)
About 2,200 (0.71%) of roughly 310,000 compounds showed an effect of 50% or more. Effects have a minus sign here. Some of the results follow.

The compounds below were run against human ether-à-go-go-related gene (hERG) potassium channel (human, UniProt Q12809) (assay: primary screen, population patch clamp on CHO cells stably expressing hERG).
human ether-à-go-go-related gene (hERG) potassium channel, sequence (Q12809 whole entry, looked up): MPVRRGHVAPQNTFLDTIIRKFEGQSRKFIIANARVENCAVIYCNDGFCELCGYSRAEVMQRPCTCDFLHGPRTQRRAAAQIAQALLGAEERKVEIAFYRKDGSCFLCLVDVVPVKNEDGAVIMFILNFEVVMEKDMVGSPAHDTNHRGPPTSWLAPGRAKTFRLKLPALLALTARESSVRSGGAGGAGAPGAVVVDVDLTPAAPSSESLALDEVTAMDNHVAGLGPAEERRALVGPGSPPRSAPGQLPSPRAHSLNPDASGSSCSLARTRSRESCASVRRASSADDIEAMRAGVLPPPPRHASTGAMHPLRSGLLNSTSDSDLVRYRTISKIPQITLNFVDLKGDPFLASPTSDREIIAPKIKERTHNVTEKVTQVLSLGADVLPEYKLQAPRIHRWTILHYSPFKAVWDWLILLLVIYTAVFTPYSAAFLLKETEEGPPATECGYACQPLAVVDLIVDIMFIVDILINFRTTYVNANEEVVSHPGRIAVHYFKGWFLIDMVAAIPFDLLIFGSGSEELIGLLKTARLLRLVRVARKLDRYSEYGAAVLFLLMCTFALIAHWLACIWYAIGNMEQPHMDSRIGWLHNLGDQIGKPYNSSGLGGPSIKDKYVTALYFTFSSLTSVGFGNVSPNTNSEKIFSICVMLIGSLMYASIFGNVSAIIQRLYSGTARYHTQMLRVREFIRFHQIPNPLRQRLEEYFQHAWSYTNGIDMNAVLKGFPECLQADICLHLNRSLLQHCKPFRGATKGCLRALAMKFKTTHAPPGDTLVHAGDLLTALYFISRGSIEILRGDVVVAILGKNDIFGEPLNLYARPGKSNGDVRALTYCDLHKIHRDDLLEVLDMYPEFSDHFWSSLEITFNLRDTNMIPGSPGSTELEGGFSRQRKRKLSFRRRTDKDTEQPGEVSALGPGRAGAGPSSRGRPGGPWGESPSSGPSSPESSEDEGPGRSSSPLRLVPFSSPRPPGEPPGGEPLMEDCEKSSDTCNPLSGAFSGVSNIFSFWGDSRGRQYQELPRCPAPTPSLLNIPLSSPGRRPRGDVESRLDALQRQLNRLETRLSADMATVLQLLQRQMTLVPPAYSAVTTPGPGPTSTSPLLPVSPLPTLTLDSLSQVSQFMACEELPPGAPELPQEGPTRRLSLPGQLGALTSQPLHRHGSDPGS

Compound | hERG current change (%, negative = inhibition) at 1uM
Cc1cccc(C(=O)NNC(=O)CCn2nnc3ccccc32)c1 | 16.9%
Cc1[nH]c(=O)[nH]c(=O)c1S(=O)(=O)Nc1ccc(S(N)(=O)=O)cc1 | 15.7%
COC(=O)c1ccc(Oc2nc3c(c(=O)n(C)c(=O)n3C)n2CCC(C)C)cc1 | 9.24%
Cl.O=C(NCCNCCO)c1c(O)c2cccc3c2n(c1=O)CCC3 | -2.57%
[O-]/[N+](=C\c1ccccc1)c1ccccc1 | 13.6%
O=C(Nc1sc2c(c1C(=O)O)CCC2)c1cccc(Cl)c1 | 16.3%
Cc1ccc(C#CC[N+](C)(C)CC#Cc2ccccc2)cc1.[Br-] | -30.4%
Cc1ccc(C(=O)NCC(c2ccco2)N2CCc3ccccc3C2)cc1C (centres unmarked) | -5.84%
COc1ccc(-n2c(SC(C)C(=O)N3CCOCC3)nc3ccccc3c2=O)cc1 (centres unmarked) | 11.9%
CCCOc1cccc(C2/C(=C(\O)c3ccc4c(c3)OCCO4)C(=O)C(=O)N2CCCn2ccnc2)c1 (centres unmarked) | 17.9%
CSc1nc2c(c(=O)n1Cc1ccccc1)SC(C)C2 (centres unmarked) | 2.75%
CN(CCc1ccccn1)C(=O)CCc1nnc(CCCc2ccccc2)o1 | 4.67%
Cc1nn(-c2ccccc2)c(C)c1/C=N/NC(=O)c1cc(-c2cccs2)[nH]n1 | 0.783%
O=C(Nc1nc2ccccc2[nH]1)c1ccc(S(=O)(=O)N2CCOCC2)cc1 | 15.2%
O=C(CC(=O)N/N=C/c1c(F)cccc1Cl)NCc1ccccc1 | 9.14%
O=C(N/N=C/c1cccc([N+](=O)[O-])c1)C1CC1c1ccccc1 (centres unmarked) | 0.918%
Brc1c(OCCOCCn2cncn2)ccc2ccccc12 | 3.89%
c1ccc(-n2nnnc2SCc2cccc3nsnc23)cc1 | 8.61%
CCNC(=O)[C@H]1O[C@@H](n2cnc3c(N)ncnc32)[C@H](O)[C@@H]1O | 11.6%
O=C(CCCn1c(SCc2cc(=O)n3ccccc3n2)nc2ccccc2c1=O)NCC1CCCO1 (centres unmarked) | 16.9%
COc1ccc([N+](=O)[O-])cc1-n1cnnn1 | 17.1%
O=C(COc1ccc2ccccc2c1)N1CCN(C(=O)c2cccnc2)CC1 | -4.88%

Compound | hERG current change (%, negative = inhibition) at 1uM
COc1ccc(/C=C/C(=O)N2CCC(c3ccccc3)C2)cc1 (centres unmarked) | -6.25%
CCn1ccnc1CN(C)Cc1cn(-c2cccc(C)c2)nc1-c1cccc(F)c1 | 15%
N#C/C(=C\c1ccc[nH]1)C(=O)N1CCCCC1 | 12.9%
COc1ccc(/C=N/NC(=O)CN(c2ccc(OC)cc2)S(=O)(=O)c2ccccc2)cc1 | 8.43%
O=C(COC(=O)c1cc(Cl)ccc1Cl)NC1CCCC1 | 3.71%
COC(=O)C1SCC2C(=O)N(Cc3ccccc3)CC(=O)N21 (centres unmarked) | 14%
O=C1NC(=NCc2ccccc2)S/C1=C/c1ccc(O)cc1 | 8.13%
CC(O)CNc1nc2ccccc2n1-c1ncnc2sc3c(c12)CCC3 (centres unmarked) | -2.21%
Oc1ccc(/C=N/N2CCN(C3c4ccccc4-c4ccccc43)CC2)cc1 | 6.97%
COc1ccc(CCNC(=O)CN2CCC(C)CC2)cc1OC.O=C(O)C(=O)O | 22.7%
Cc1ccccc1OCC(=O)Nc1sc2c(c1C#N)CC(C)(C)NC2(C)C | 13.3%
CCOC(=O)C1CCN(C(=O)c2sc3nc(-c4ccccc4)cn3c2C)CC1 | -8.54%
Cc1ccc(CCNC(=O)CN2C(=O)COc3ccccc32)cc1 | -0.587%
CC1CC(C)CN(S(=O)(=O)c2ccc(C(=O)Nc3sccc3C(N)=O)cc2)C1 (centres unmarked) | 10.2%
O=C(Nc1ccc2c(c1)CCC2)c1cccc(S(=O)(=O)N2CCN(c3ccc(F)cc3)CC2)c1 | 3.13%
Cl.O=C(Nc1cccc(Cl)c1)NC1CCN(C2CCCCC2)C1 (centres unmarked) | 1.6%
O=C(Cn1c(NCCO)nc2ccccc21)N1CCN(Cc2ccccc2)CC1 | 3.72%
Cc1nc2ccccc2cc1C(=O)NCc1ccc(F)cc1 | -15.8%
COc1ccc(N(CC(=O)N2CCOCC2)S(C)(=O)=O)cc1OC | 12.2%
CN(C)S(=O)(=O)c1cccc(C(=O)NCC2CCCO2)c1 (centres unmarked) | 4.21%
COc1ccccc1N1C(=O)c2cccc3c(C(=O)O)ccc(c23)C1=O | -7.52%
Cc1cc(C(=O)OCC(=O)Nc2cc(S(=O)(=O)N(C)C)ccc2C)c2ccccc2n1 | 6.52%
